Experimental data: US8008094B2, “Methods for analyzing interactions between proteins and sugar chains” (National Institute of Advanced Industrial Science and …, priority 2003, dated 2011)

Test system: binding of Cy3-ASF to lectin spots
Test: Inhibition of lectin-sugar chain interaction on lectin array by competitively inhibiting sugar (Example 1)
Settings: Cy3-ASF probe, increasing inhibiting sugar concentration

OC[C@H]1O[C@@H](O[C@H]2[C@H](O)[C@@H](O)C(O)O[C@@H]2CO)[C@H](O)[C@@H](O)[C@H]1O (stereo partly shown) [lactose]
fluorescence intensity of the spots in the presence of inhibiting sugar: decrease as the concentration of inhibiting sugar increased
